Assay results as given in PubChem BioAssay AID504339 (National Center for Advancing Translational Sciences (NCATS), 2011).
About 17,000 (4.4%) of roughly 390,000 compounds were called active. Inconclusive means that the source gave no clear call. Such entries were picked first, then a sample of the others. Calls follow the shape of the dose curve; as a rule, active = well fitted inhibition curve with a large enough effect; inconclusive = small, poorly fitted or top-dose-only effect; inactive = no such curve, though single readings can be large or run the other way. A potency beside an inconclusive call is a rough fit, not a confirmed value.

Each compound was assayed against Lysine-specific demethylase 4A (Homo sapiens) (UniProt O75164) (assay: qHTS Assay for Inhibitors of JMJD2A-Tudor Domain). Conditions: AlphaScreen JMJD2A-Tudor / H3K4me3 peptide binding; series mostly up to 114 µM; activity change, negative = inhibition: at the top concentration.
Sequence of UniProt O75164 (O75164 whole entry, looked up, the tested form may be a part): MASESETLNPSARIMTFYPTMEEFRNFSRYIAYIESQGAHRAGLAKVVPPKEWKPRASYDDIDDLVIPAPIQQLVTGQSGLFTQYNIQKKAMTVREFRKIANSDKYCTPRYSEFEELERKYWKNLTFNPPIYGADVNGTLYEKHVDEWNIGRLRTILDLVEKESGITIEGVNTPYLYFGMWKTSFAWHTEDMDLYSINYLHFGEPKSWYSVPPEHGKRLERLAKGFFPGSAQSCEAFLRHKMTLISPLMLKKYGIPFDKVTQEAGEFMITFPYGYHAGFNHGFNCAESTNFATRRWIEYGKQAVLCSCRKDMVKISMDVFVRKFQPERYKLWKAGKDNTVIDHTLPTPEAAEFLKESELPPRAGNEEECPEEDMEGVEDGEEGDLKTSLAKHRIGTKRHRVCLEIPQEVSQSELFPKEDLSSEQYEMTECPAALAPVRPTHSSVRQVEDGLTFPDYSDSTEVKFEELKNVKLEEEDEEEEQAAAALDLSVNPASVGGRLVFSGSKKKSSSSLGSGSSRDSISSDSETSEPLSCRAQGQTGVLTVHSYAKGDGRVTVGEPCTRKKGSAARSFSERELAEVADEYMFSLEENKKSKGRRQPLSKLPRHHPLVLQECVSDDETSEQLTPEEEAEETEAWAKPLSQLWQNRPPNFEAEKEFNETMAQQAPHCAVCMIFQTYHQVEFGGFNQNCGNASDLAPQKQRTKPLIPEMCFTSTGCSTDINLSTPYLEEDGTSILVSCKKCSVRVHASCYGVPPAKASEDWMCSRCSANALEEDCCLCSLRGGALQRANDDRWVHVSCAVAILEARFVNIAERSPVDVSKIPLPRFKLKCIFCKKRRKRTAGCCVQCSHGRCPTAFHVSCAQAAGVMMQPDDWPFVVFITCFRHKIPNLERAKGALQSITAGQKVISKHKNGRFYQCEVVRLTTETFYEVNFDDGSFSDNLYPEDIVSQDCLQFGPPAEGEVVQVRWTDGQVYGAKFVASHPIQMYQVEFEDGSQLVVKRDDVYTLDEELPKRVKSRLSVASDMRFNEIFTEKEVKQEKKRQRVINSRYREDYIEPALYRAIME
Text: JMJD2A is a jumonji-domain-containing lysine demethylase that uses Fe(II) together with 2-OG to effect oxidative demethylation of histones. Methylation is one of many […] modification that affect epigenetic transcription. […] It is proposed that the functions of JmjD2A binding to the histones, is to maintain marks after they are installed and to spread the modifications by […], establishing a self-propagating cycle for rapid methylation over a large area of chromatin. […] Thus, small molecule targeting of the JMJD2A-tudor domain interaction with its target methylhistone mark is expected to enable sophisticated experiments probing the fine regulatory pathways leading to selective demethylation of a given methyllysine locus based on the methylation state of adjacent histone marks. A quantitative high throughput AlphaScreen has been developed to identify small molecule inhibitors based on a protocol published by NCGC and SGC [4].
Although AlphaScreen has significant advantages with its utility in a variety of epigenetic target assays, the primary screening data provided in this deposition should be used with caution due to the prevalence of screening artifacts. The top compound concentration tested was high (>100uM) in this assay, which increases number of actives and potential artifacts. An AlphaScreen counterscreen is highly recommended to be run against any putative actives to eliminate non-specific artifacts. Alternatively, one can use other AlphaScreen assays in PubChem to filter out promiscuous hits.
[1] Lee, J. et al. Distinct binding modes specify the recognition of methylated histone H3K4 and H4K20 by JMJD2A-tudor. Nat Struct Mol Biol. 15(1); 109-11. 2008. PMID: 18084306
[2] Yasgar, et al. Compound Management for Quantitative High-Throughput Screening. JALA. 2008 Apr;13(2):79-89. PMID: 18496600
[3] Inglese, et al. Quantitative high-throughput screening: a titration-based approach that efficiently identifies biological activities in large chemical libraries. Proc Natl Acad Sci. 1;103(31):11473-8. 2006. PMID: 16864780
[4] Quinn et al. A homogeneous method for investigation of methyl-dependent protein-protein interactions in epigenetics. Nucleic Acids Res., 38(2):e11. 2010. PMID: […]
[5] Baell,Holloway. New substructure filters for removal of pan assay interference compounds (PAINS) from screening libraries and for their exclusion in bioassays. J Med Chem. 53(7):2719-40. 2010. PMID: 20131845
NIH Molecular Libraries Probe Production Network [MLPCN]
NIH Chemical Genomics Center [NCGC]
Structural Genomics Consortium (SGC)
To each well of a 1,536w plate, 2ul of JMJD2A-Tudor (final 100nM) and 1ul biotinylated histone peptide methylated at Lys4 [b-H3(1-18)K4me3] (final 50nM) were added in 1x PBS buffer, pH 7.4, containing 0.01% Tween-20, using a nanoliter dispenser. Formation of a protein-peptide complex proceeded at room temperature for 30 min. A Kalypsys pin-tool transferred 23nl of library compound solution in DMSO to each well. Following a 30 min incubation of the protein-peptide complex with compounds at room temperature, a mixture of 40 µg/mL each streptavidin-coated donor and nickel chelate acceptor AlphaScreen beads (final 10 µg/mL) was added in a 1ul dispense for a final volume of 4ul, followed by a brief centrifugation (1000 rpm, 1 min). Plates were incubated protected from the light for 20 min at room temperature. Microplates were then read on an EnVision multilabel plate reader using the 1,536 plate HTS AlphaScreen aperture (excitation time 80 ms, measurement time 240 ms).
% is scaled to controls: 0 for no effect and ±100 for the full control effect; potency is read from the fitted curve at half-maximal effect; tags tell the direction and shape of the fitted curve.
Also: nearly all actives have a fitted effect of over 50% in size.

Potency, active:
COc1cc(/C=C2/C(=O)NN(c3cccc(Cl)c3)C2=O)cc(Br)c1O 44.7 µM
COc1ccc(/C=C/C(=O)c2cc(Br)ccc(=O)c2O)cc1 31.6 µM
CCn1c(=O)c2c(n3c(=S)[nH]nc13)-c1ccccc1CC21CCCCC1 17.8 µM
C[C@H](CO)N1C[C@H](C)[C@@H](CN(C)CC2CCCCC2)Oc2c(NC(=O)Cc3ccccc3)cccc2C1=O 56.2 µM
COc1ccc(N2CCN(c3nc(NCCc4ccc(OC)c(OC)c4)nc(OC)n3)CC2)cc1 25.1 µM
COc1ccc(OC)c(CNc2ccc([N+](=O)[O-])cc2C)c1 28.2 µM
N/C(=N\NC(=O)Nc1ccc(Cl)cc1)c1ccccn1 44.7 µM
CC(/C=N/n1c(-c2ccccc2)n[nH]c1=S)=C\c1ccco1 50.1 µM
Fc1ccccc1N1CCN(CC2CCCCC2)CC1 20 µM
Cc1cc(O)ccc1Nc1nc(-c2sc(N)nc2C)cs1 50.1 µM
Cc1nc(N)sc1N=Nc1ccccc1C(F)(F)F 50.1 µM

Potency, inconclusive:
COc1ccc(-n2cc(CNCCCn3ccnc3)c(-c3cccc(F)c3)n2)cc1 28.2 µM [inhibitor, full curve, poor fit]
Cc1c(C(=O)OCC(C)C)[nH]c2c1C(=O)CC(c1ccco1)C2 (stereo unspecified) 56.2 µM [inhibitor, partial curve]
CCOc1cccc(/C=N/NC(=S)Nc2ccccc2[N+](=O)[O-])c1O 5.01 µM [inhibitor, full curve]
CCOc1ccc(OCCC(=O)OCC(=O)Nc2cc(OCC)c(N3CCOCC3)cc2OCC)cc1 50.1 µM [inhibitor, partial curve]
CCCCN(C)CC(O)Cn1cc(/C=C/C(=O)c2ccc(OC)c(OC)c2)c2ccccc21 (stereo unspecified) 56.2 µM [inhibitor, partial curve]
CCC(C)(C)n1nnnc1C(c1cc2cc(C)cc(C)c2[nH]c1=O)N1CCCC1 (stereo unspecified) 35.5 µM [inhibitor, partial curve]
CCn1c(N)c(C(=O)NC2CCCCC2)sc1=S 89.1 µM [inhibitor, partial curve]
O=S(=O)(c1ccc(Br)cc1)c1nc(-c2ccco2)oc1NCCCn1ccnc1 79.4 µM [inhibitor, partial curve]
COc1ccc(NC(=O)CN(C)CC(=O)Nc2ccc(Cl)cc2[N+](=O)[O-])cc1 22.4 µM [inhibitor, full curve, poor fit]
Nc1[nH]n2c(=O)cc(-c3ccccc3)nc2c1N=Nc1ccc(S(N)(=O)=O)cc1 50.1 µM [inhibitor, partial curve]
Cc1ccc(Cl)cc1N1CCN(C(=O)c2cccn2-c2nnc(N3CCCCC3)s2)CC1 39.8 µM [inhibitor, partial curve]
CCC(C)c1ccc(O)c(N)c1 (stereo unspecified) 6.31 µM [inhibitor, full curve, poor fit]
CSc1ccc(/C=N/n2c(C3CCCCC3)n[nH]c2=S)cc1 44.7 µM [inhibitor, partial curve]
CCOC(=O)C(=O)/C(C#N)=C/Nc1ccc(Cl)cc1 56.2 µM [inhibitor, partial curve]
CCc1ccc(C(=O)/C=C/Nc2ccc(S(=O)(=O)Nc3onc(C)c3C)cc2)cc1 39.8 µM [inhibitor, partial curve]
CC1C(=O)Nc2ccc(S(=O)(=O)Nc3ccccc3Br)cc2NC1=O (stereo unspecified) 20 µM [inhibitor, full curve, poor fit]
Cc1cc(/C=N/O)c(C)n1-c1cccc(Cl)c1 44.7 µM [inhibitor, partial curve, poor fit]
O=C(/C=N/O)NCCCN1CCCCCC1 89.1 µM [inhibitor, single point]
COc1ccc(-c2ccc(C(C)=O)cc2)cc1C1C2C=CCC(C)C2C(=O)N1Cc1ccccc1 (stereo unspecified) 56.2 µM [inhibitor, partial curve]
COc1cccc(Oc2cn[nH]c2-c2ccc(O)cc2O)c1 56.2 µM [inhibitor, partial curve]
CCOc1ccc(C2c3[nH]c4ccccc4c3CCN2C(=O)CSc2ccccc2)cc1 (stereo unspecified) 44.7 µM [inhibitor, partial curve]
CCOC(=O)c1ccc(NC(=O)c2ccc3c(c2)OCO3)cc1 70.8 µM [inhibitor, single point]
Cc1ccc(S(=O)(=O)/N=C(/Nc2ccc([N+](=O)[O-])cc2[N+](=O)[O-])c2ccccc2)cc1 44.7 µM [inhibitor, partial curve]
COc1cc(Cl)c(NS(=O)(=O)c2c(C(=O)N3CCCC3)c(C)n(C)c2C)c(OC)c1 17.8 µM [inhibitor, full curve]
COc1cccc(C(=O)Nc2nc3c(s2)CCCC3)c1 56.2 µM [inhibitor, partial curve]
C[N+](C)(C)CCCCCCC(=O)/C=N/O 35.5 µM [inhibitor, partial curve]

Activity change, negative = inhibition, inactive:
CCCn1ccc2c(OCC(=O)NCc3ccc(F)cc3)cccc2c1=O 4.22%
Cc1cccc(NC(=O)C2CCN(S(=O)(=O)c3cccc4nonc34)CC2)c1 -20.4%
O=C(Cc1ccccc1)N/N=C/c1cccc([N+](=O)[O-])c1 -6.38%
CCOc1ccccc1N(CC(=O)N1CCCCCC1)S(C)(=O)=O -18.7%
CCOc1ccc(-n2c(-c3ccccc3)nnc2-c2ccccc2)cc1 5.48%
COc1ccccc1CNS(=O)(=O)CCNC1CCCCC1 -14.4%
CCCOc1ccc(/C=N/Nc2ccccn2)cc1OC -8.25%
CCOc1cc(CNCCSc2nnnn2C)ccc1OCc1ccc(Cl)cc1Cl -14.2%
Cc1ccc(C(=O)N2CCN(CCNC(=O)C(=O)NC(C)C)CC2)cc1 -7.36%
